# In article PMC11360281 (Viruses, 2024):
# Values joined by “and” are separate entries in the source; they are usually repeats but may differ in a detail not shown here. Equal values may be shown once. Read-outs that look alike come from different tables or passages of the source.
# Columns and labels:
# [1] = system: HCV genotype 1b (strain Con1) subgenomic replicon; assay: HCV GT 1b (Con1) subgenomic replicon luciferase assay in Huh5-2 cells; format: cell-based; conditions: for EC50: HCV GT 1b (Con1), Huh5-2 cells, F-Luc, 72 h, mean ± SD; for SI: CC50/EC50, HCV GT 1b (Con1); for activity against HCV: HCV GT 1b replicon
# [2] = system: YFV (strain 17D) subgenomic replicon; assay: microbe, parasite or virus in culture; format: cell-based; conditions: for EC50: Yellow fever virus, read-out: YFV EC50
# [3] = in vitro; conditions: human
# [4] = system: DENV serotype 2 (strain 16681) subgenomic replicon; assay: microbe, parasite or virus in culture; format: cell-based; conditions: for EC50: Dengue virus, DENV2, read-out: DENV EC50
# [5] = system: HCV RNA (subgenomic Con1 replicon); conditions: Hepatitis C virus, Huh-5-2, read-out: HCV RNA: EC50
# [6] = system: HCV GT 1b (Con1) replicon; format: cell-based; conditions: 36-adapted vs DMSO-adapted Huh5-2 replicon cells
# [7] = system: HCV GT 3a (strain S52) subgenomic replicon; assay: HCV GT 3a subgenomic replicon luciferase assay in Huh7.5-3a cells; format: cell-based; conditions: for EC50: Hepatitis C virus, GT3A, HCV GT 3a (S52), Huh7.5-3a cells, mean ± SD
# [8] = system: HCV GT 4a (strain ED43) subgenomic replicon; assay: HCV GT 4a subgenomic replicon luciferase assay in Huh7.5-4a cells; format: cell-based; conditions: Hepatitis C virus, GT4A, HCV GT 4a (ED43), mean ± SD
# [9] = system: HCV NS5A; assay: Western blot analysis for NS5A in Huh5-2 cells
# [10] = system: HCV GT 1b (Con1) replicon; assay: Combinatory treatment with DSV or Peg-IFN in Huh5-2 replicon cells, F-Luc; conditions: for type of interaction with DSV: Huh5-2 replicon cells
# [11] = system: HCV-N.2-GLuc/T181I (NS5B mutant T181I); assay: microbe, parasite or virus in culture; format: cell-based; conditions: for EC50: Hepatitis C virus, Huh-7, 72 h; for mut/wt EC50 ratio (fold less susceptible): T181I mutant vs wild-type HCV-N.2-GLuc
# [12] = system: HCV GT 2a (strain JFH1) subgenomic replicon; assay: HCV GT 2a subgenomic replicon luciferase assay in Huh7-JFH1 cells; format: cell-based; conditions: for EC50: Hepatitis C virus, GT2A, HCV GT 2a (JFH1), Huh7-JFH1 cells, mean ± SD
# [13] = system: wild-type HCV-N.2-GLuc (GT 1b full-length); assay: microbe, parasite or virus in culture; format: cell-based; conditions: Hepatitis C virus, GT1B, Huh-7, 72 h
# [14] = Hepatitis C virus, GETYPE1B|GT1B, Huh-5-2, 72 h
# [15] = Hepatitis C virus, GETYPE1B|GT1B, Huh-5-2, 72 h, read-out: EC50
# [16] = compound 25 μM + 10 IU/mL Peg-IFN
# [17] = compound 50 μM + 10 IU/mL Peg-IFN
compound,measurement,setting,value
"O=C1Cn2c(cc3ccccc32)C(=O)N1 [Compound 40, pyrazino[1,2-a]indole-1,3(2H,4H)-dione]",EC50,[1]; [14],> 200 µM
same,EC50,[2],> 200 µM
same,CC50,[3],> 200 µM
same,EC50,[4],> 200 µM
O=C1Cn2c(cc3ccccc32)C(=O)N1O [Compound 6],SI,[1],>1.6
same,EC50,[1]; [15],127 ± 8.98 µM
same,YFV SI,[2],>3.48
same,EC50,[2],57.6 ± 2.64 µM
same,CC50,[3],> 200 µM
same,EC50,[4],> 200 µM
CC1C(=O)N(O)C(=O)c2cc3cc(Cl)ccc3n21 (stereo not shown) [Compound 78],SI,[1],7.8
same,EC50,[1]; [15],12.9 ± 0.39 µM
same,YFV SI,[2],15.22
same,EC50,[2],6.57 ± 0.33 µM
same,CC50,[3],99.9 ± 3.54 µM
same,EC50,[4],> 50 µM
O=C(CN1C(=O)Cn2c(cc3cc(F)ccc32)C1=O)NO [Compound 48],EC50,[1]; [15],> 200 µM
same,EC50,[2],> 200 µM
same,CC50,[3],> 200 µM
same,EC50,[4],> 200 µM
COc1ccc2c(c1)cc1n2CC(=O)N(O)C1=O [Compound 18],EC50,[1]; [15],> 200 µM
same,EC50,[2],> 200 µM
same,CC50,[3],> 200 µM
same,EC50,[4],> 200 µM
O=C1Cn2c(cc3cc(F)ccc32)C(=O)N1O [Compound 12],SI,[1],>2.5
same,EC50,[1]; [15],81 ± 8.24 µM
same,EC50,[2],> 200 µM
same,CC50,[3],> 200 µM
same,EC50,[4],> 200 µM
O=C1Cn2c(cc3cc(O)ccc32)C(=O)N1O [Compound 39],EC50,[1]; [14],> 200 µM
same,EC50,[2],> 200 µM
same,CC50,[3],> 200 µM
same,EC50,[4],> 200 µM
CC1C(=O)N(O)C(=O)c2cc3cc(F)ccc3n21 (stereo not shown) [Compound 70],SI,[1],2.6
same,EC50,[1]; [15],32.9 ± 1.93 µM
same,YFV SI,[2],7.41
same,EC50,[2],11.7 ± 0.66 µM
same,CC50,[3],86.5 ± 3.36 µM
same,EC50,[4],> 50 µM
COc1cc2cc3n(c2cc1OC)CC(=O)N(O)C3=O [Compound 24],EC50,[1]; [15],> 200 µM
same,EC50,[2],> 200 µM
same,CC50,[3],> 200 µM
same,EC50,[4],> 200 µM
O=C1Cn2c(cc3cccc([N+](=O)[O-])c32)C(=O)N1O [Compound 36],EC50,[5],3.97 µM
same,SI,[1],108.9
same,EC50,[1]; read-out: EC50,1.61 ± 0.32 µM
same,fold higher potency than 30,"[1]; HCV GT 1b, 36 compared to 30",about 6 fold
same,EC50,[1]; [15],1.6 µM
same,36/DMSO EC50 ratio (fold reduction of activity),[6],3.67 and ~ 3
same,activity against GT 3a,[7],moderate activity
same,EC50,[7],27.9 ± 1.64 µM
same,YFV SI,[2],1.22
same,EC50,[2],144 ± 4.9 µM
same,CC50,[3],175 ± 13.5 µM
same,EC50,[8],> 100 µM
same,NS5A (% of C),[9]; 36 at 12.5 μM,34.56 ± 2.7 % of C
same,NS5A (% of C),[9]; 36 at 25 μM,27.98 ± 1.19 % of C
same,NS5A (% of C),[9]; 36 at 50 μM,3.95 ± 1.14 % of C
same,type of interaction with DSV,[10],synergistic effect
same,CDI (coefficient of drug interaction),[10]; combined with DSV,≈ 0.9
same,CDI (coefficient of drug interaction),[10]; combined with Peg-IFN,≈ 0.75
same,CDI (coefficient of drug interaction),[10]; compound 25 μM + 10 pM DSV,0.89
same,CDI (coefficient of drug interaction),[10]; [16],0.80
same,CDI (coefficient of drug interaction),[10]; compound 50 μM + 10 pM DSV,0.91
same,CDI (coefficient of drug interaction),[10]; [17],0.74
same,EC50,[11],3.3 ± 0.18 µM
same,mut/wt EC50 ratio (fold less susceptible),[11],2.43
same,DENV SI,[4],1.41
same,EC50,[4],124 ± 6.49 µM
same,activity against GT 2a,[12],moderate activity
same,EC50,[12],78.3 ± 3.44 µM
same,EC50,[13],1.36 ± 0.11 µM
CC1C(=O)N(O)C(=O)c2cc3ccccc3n21 (stereo not shown) [Compound 66],SI,[1],1.8
same,EC50,[1]; [15],99.7 ± 5.52 µM
same,YFV SI,[2],5.85
same,fold higher potency than compound 6,"[2]; YFV, 66 compared to 6",~ 2 fold
same,EC50,[2],30.3 ± 2.1 µM
same,CC50,[3],177 ± 5.71 µM
same,EC50,[4],> 100 µM
O=C(CN1C(=O)Cn2c(cc3cc(Cl)ccc32)C1=O)NO [Compound 52],EC50,[1]; [15],> 200 µM
same,EC50,[2],> 200 µM
same,CC50,[3],> 200 µM
same,DENV SI,[4],>3.26
same,activity against DENV replication,[4],moderate activity
same,EC50,[4],61.3 ± 3.1 µM
O=C(CN1C(=O)Cn2c(cc3ccccc32)C1=O)NO [Compound 44],EC50,[1]; [15],> 200 µM
same,EC50,[2],> 200 µM
same,CC50,[3],> 200 µM
same,EC50,[4],> 200 µM
O=C(CN1C(=O)Cn2cccc2C1=O)NO [Compound 62],activity against HCV,[1],inactive
same,EC50,[1]; [15],> 200 µM
same,EC50,[2],> 200 µM
same,CC50,[3],> 200 µM
same,EC50,[4],> 200 µM
Nc1cccc2cc3n(c12)CC(=O)N(O)C3=O [Compound 38],EC50,[1]; [15],> 200 µM
same,EC50,[2],> 200 µM
same,CC50,[3],> 200 µM
same,DENV SI,[4],>2.66
same,activity against DENV replication,[4],moderate activity
same,EC50,[4],75.2 ± 6.58 µM
O=C1Cn2c(cc3cc(Cl)ccc32)C(=O)N1O [Compound 30],SI,[1],>20.2
same,EC50,[1]; [15],9.9 ± 1.75 µM
same,activity against GT 3a,[7],inactive
same,EC50,[7],> 100 µM
same,EC50,[2],> 200 µM
same,CC50,[3],> 200 µM
same,EC50,[8],84.7 ± 5.28 µM
same,type of interaction with DSV,[10],additive effect
same,CDI (coefficient of drug interaction),[10]; combined with DSV,≈ 1
same,CDI (coefficient of drug interaction),[10]; combined with Peg-IFN,≈ 0.75
same,CDI (coefficient of drug interaction),[10]; compound 25 μM + 10 pM DSV,1.09
same,CDI (coefficient of drug interaction),[10]; [16],0.76
same,CDI (coefficient of drug interaction),[10]; compound 50 μM + 10 pM DSV,0.97
same,CDI (coefficient of drug interaction),[10]; [17],0.76
same,EC50,[11],31.5 ± 4.58 µM
same,mut/wt EC50 ratio (fold less susceptible),[11],2.57
same,EC50,[4],> 200 µM
same,activity against GT 2a,[12],inactive
same,EC50,[12],> 100 µM
same,EC50,[13],12.2 ± 1.18 µM
COc1ccc2c(c1)cc1n2C(C)C(=O)N(O)C1=O (stereo not shown) [Compound 74],SI,[1],1.6
same,EC50,[1]; [15],61.1 ± 1.72 µM
same,YFV SI,[2],4.82
same,EC50,[2],20.9 ± 1.28 µM
same,CC50,[3],101 ± 4.05 µM
same,EC50,[4],> 50 µM
O=C(O)CN1C(=O)Cn2c(cc3cc(F)ccc32)C1=O [Compound 46],EC50,[1]; [15],> 200 µM
same,EC50,[2],> 200 µM
same,CC50,[3],> 200 µM
same,EC50,[4],> 200 µM
"O=C1Cn2cccc2C(=O)N1O [Compound 58, 2-hydroxypyrrolo[1,2-a]pyrazine-1,3(2H,4H)-dione]",activity against HCV,[1],inactive
same,EC50,[1]; [15],> 200 µM
same,EC50,[2],> 200 µM
same,CC50,[3],> 200 µM
same,DENV SI,[4],>1.52
same,EC50,[4],131 ± 10.1 µM
